In the supplement of paper PMC10126150:
Sequences with one replicate were seen in a single cluster, so their values are uncertain.

System: ATP
Experiment: switch fluorescence ratio, 500 uM ATP over buffer (Cy3 cluster intensity, sum of 5 cycles each) (fold (ratio)); higher = stronger signal-on switching upon ATP binding; sequences stand for … in TCGTCGGCAGCGTCAGATGTGTATAAGAGACAGTTTTTTTTTTTTTTTTTTTTTTTTT…TC
Conditions: aptamer strand: ATP DNA aptamer (quencher-CACCTGGGGGAGTATTGCGGAGGAAGG + anchor), 100 nM annealed; ATP concentration: 500 uM; one replicate
Procedure, shortened: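 Imaging in selection buffer was followed by imaging after 15 min with 500 uM ATP at 22 °C, for Cy3-labelled switching-strand clusters annealed to 100 nM quencher-labelled ATP aptamer on a modified Illumina MiSeq flow-cell. Five of these buffer/ATP cycles ran, separated by NaOH stripping and re-annealing. The fluorescence ratio per cluster is summed target-cycle over summed buffer-cycle Cy3 intensity, averaged per switch-domain sequence; clusters outside 100-1000 RFU were removed.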
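Also: ATP exposure 15 min at 22 °C before imaging.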

Sequence	switch fluorescence ratio
CATTAATACT	1.11
TGGCGCAGGA	1.04
CGGTCGTGTG	0.958
TGTCCCGGTT	1
ACGATCACGC	1.29
AACCGGGGGA	1.05
TTCGAGACTC	1
AGTCTTATCC	0.996
AAGCGCAGC	1.03
GCCCGTATTT	0.973
TAGTTCAAGG	1.05
ATTTCTACCT	1.2
ATTATTTTA	0.998
ATCGGACCCT	1.03
GCCAGTTCC	1.08
CTGTCATCCA	0.994
TGTTGCGTAG	1
GGCTCTTGCC	1
CCTAGGGT	1.11
AACATGGGC	1.03
ATGCGTTTAC	1.12
ATATGCCTGC	0.968
GATTAGGAGA	0.988

Sequence	switch fluorescence ratio
ACGCGTTGAA	1.03
TTGAACCCCT	1.4
ATTTTTAACG	0.981
GATAGTTGTC	0.996
AGCAAAGGGT	0.987
CTATGTAATG	1.05
GAATCACTTT	1.02
TTCATTGATC	1.04
ATTGCCTATG	1.02
CTGTGAGTAC	0.991
ATTCGGTGTT	1.02
CCATCACTAC	1.86
ATATAGGAAT	0.968
ACCGGCGAAA	1.27
AATGAGTGC	1.01
TTTGCATC	0.986
TTGTTGACC	1.01
ACATCTTAGT	1.02
CAGGAGCTAG	1.53
TAGGTCTATG	0.961
CTCTAATCCA	0.989
TGGACAACTA	1.08
GGTTTGGATG	1.32

Sequence	switch fluorescence ratio
TACACGTGTA	0.996
ACAGCCAAGC	1
GTCGCACACT	1.17
TTTCTTGCTT	1.16
AAAAATTCT	0.987
TATAGTACTA	0.96
TCTCTTATCC	1.04
ATGCTACTCA	1.1
AACCCCGGA	1.04
ATATCTTGGG	0.991
AATTGTGAGA	0.993
CGCTGGGGAA	1.02
GTAACTATAT	1.08
AATTTTTTTA	1.02
CTAAAGGAGG	0.975
CTCGCCTGG	1.06
CATTGGAGCG	1.02
TGAAGGTTAG	0.954
TCTTGTCACT	1.05
CTCTAATGCA	0.971
TGTTACTGAT	1.02
TGGGCCGGCG	1
AACGATAGTT	0.973

Sequence	switch fluorescence ratio
GGGGACCGAG	1.05
CTCTGGGCAA	4.52
TAGAAAGGCT	0.931
CGAAGATTAA	0.971
ACCTCCAGAT	1.42
GGACGTCAAC	1.23
GATTTGCACG	1.03
AGAGGATTGG	0.98
GTTCGATGCG	0.994
AGTCGGAAGT	0.964
TTGCTCAAGG	1.01
CGACCGTAAT	5.04
GAAGCTAGC	0.956
TATTCTTTTA	0.995
AAGAAAAGAT	1.02
AATCAGCATG	1.03
ATAGGTAGGA	0.98
CCTGGGGCAT	1.61
GAAAGGCATT	1
ATTAGTAGC	0.995
TTCGTCGGTC	0.97
TTCAGCGATA	3.42
ACCGAACACC	1.36

Sequence	switch fluorescence ratio
AAGCCTAAGA	1.02
CGGAACCCGC	1.06
TTGAATACGG	1.03
GAGCGGCAAT	1.21
TACATTAGCC	1.02
TAAGGGATTA	1.01
TTGTAAAGAT	0.999
CTTAATAG	1.05
GTTGATGGCT	1.07
CCACATTCGG	0.992
TATTGCATAT	1.02
GCGGTGTGTG	1
CGAAAAGGAC	0.944
TATACCCAGG	2.98
AGGGTGAGCC	1
TTGTTTTGT	1.01
TTCAATACGG	1.27
TTATGAGCTT	1.05
TTTTCTGCGG	1.17
TTGTTGCCGG	1.09
TTACGCTATA	1.65
CTTTATAAAT	0.984
CTAGAGCTAA	1.37

Sequence	switch fluorescence ratio
TCTTGAGACT	1.04
AAGCATATTG	1
GGCTATGACC	1.02
TTGTCAATAT	1.16
CGCCGGGGTA	1
CAGTTATATG	1.02
GTGGGTATGA	1.01
GGGTCTGTGT	0.987
GTATGATCTT	0.928
AGGGGCTGT	1.02
AAGGGTGGAC	0.974
TCCTCGGGA	2.15
GATAGGAATT	0.999
AGGGTACGGT	1.02
TGGGACCTAC	1.23
TGCACGAGAA	1.06
ACCTCTTCGA	1.04
TGTGTGTTTC	1.04
CTAGGTTTCT	0.99
GGTCAAAAGC	0.995
GAACTTGACG	1.02
TCTTTAGAGT	0.958
TATACAAGAA	1.03

Sequence	switch fluorescence ratio
CGGTGTCGA	1
ATGCGATCAT	0.964
GACCGCCAAT	2.9
TACGGCTACT	1.26
AAGTACGATG	1.18
ATACACTGAG	1.05
TTCTCCTAGG	1.24
CCCGACACTC	1.74
TAATTTTGTC	1.05
ACGGTCAGCC	1.05
TGAACTTTAA	1.03
TTTGGTACCA	1
CCGCTTGCAG	1.28
AGCTAATGAA	0.988
TAGGCGTTCC	1.34
CATAGCCATT	1.04
GGTTGCATAA	1.04
GCTTCTAAAT	0.991
GGGATCGGAA	1.03
